Hit rate of the full screen: of about 48,000 compounds, about 450 (0.94%) were called active. Not shown: some 19% with an inconclusive outcome. Calls follow the shape of the dose curve; as a rule, active = well fitted inhibition curve with a large enough effect; inconclusive = small, poorly fitted or top-dose-only effect; inactive = no such curve, though single readings can be large or run the other way. The list shows a part of the results.
assay: Primary qHTS for Identification of Small Molecule Inhibitors of Huntingtin Promoter Activity; settings: HEK293 HTT promoter firefly luciferase reporter (activity 0% = vehicle and -100% = no light), 24 h; series mostly up to 57.5 µM; activity change, negative = inhibition: at the top concentration; also: nearly all actives have a fitted effect of over 50% in size
Summary of the method: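 Firefly luciferase signal from promoter-reporter HEK293 cells was scaled between vehicle (0%) and zero RLU (-100%). Compounds were tested at final concentrations of up to 57.5 uM over 24 h at 37 degrees C. PTC124 at 50 uM final served as control inhibitor.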

| SMILES | activity change, negative = inhibition |
| --- | --- |
| Cc1oc(-c2ccccc2)nc1CSc1nnc(C)n2c1cc1sccc12 | inactive: -4.83% |
| O=C(CCc1nnc2n(Cc3ccccc3Cl)c(=O)c3ccccc3n12)Nc1ccc(F)c(F)c1 | inactive: 0.666% |
| Cc1ccc(-n2nc(CO)c(C(=O)NCC(c3ccccc3)c3ccccc3)n2)cc1 | inactive: 6.55% |
| CCOC(=O)N1CCc2c(sc3c2c(=O)n(CCc2ccccc2)c(=O)n3CC(=O)Nc2ccccc2C)C1 | inactive: -9.88% |
| COC(=O)c1cc2sccc2n1Cc1c(C)cc(C)cc1C | inactive: 0.734% |
| O=C(c1cccc(Cl)c1)N(Cc1cccc(F)c1)C1CCS(=O)(=O)C1 (stereo not drawn) | inactive: 1.62% |
| CCCN1CCN(CCCNC(=O)c2cc3c(s2)-c2c(C)cccc2OC3)CC1 | inactive: -27.8% |
| Cc1ccc(NC(=O)C2CCN(C(=O)c3sc4nc[nH]c(=O)c4c3C)CC2)cc1F | inactive: 0.635% |
| CCOc1cccc(C(=O)N(Cc2ccc(C(C)C)cc2)C2CCS(=O)(=O)C2)c1 (stereo not drawn) | inactive: -25% |
| Cc1ccc(C)c(OCCCC(C)(C)C(=O)O)c1 | inactive |
| COc1ccccc1C(=O)Nc1ccccc1OCc1cc(=O)n2cc(C)sc2n1 | inactive: 3.1% |
| CCN1C(=O)C(Cc2nc3ccccc3c(=O)n2-c2cccc(C)c2)c2ccccc21 (stereo not drawn) | inactive: -17% |
| CC(C)Oc1ccc(C(=O)NCCc2csc(-c3cccc(F)c3)n2)cc1 | inactive: -31.9% |
| Cc1ccc(-c2noc(-c3ccccc3OCC(=O)Nc3ccccc3[N+](=O)[O-])n2)cc1 | inactive: 11.1% |
| O=C(Nc1ncc(Cc2ccc(F)cc2)s1)c1ccc2c(c1)CC(c1ccccc1)OC2=O (stereo not drawn) | inactive: -10.6% |
| CCCC(=O)N1c2nc(-c3ccco3)nn2C2(CCCCC2)[C@@H]2CCCC[C@@H]21 | inactive: -12.3% |
| COc1cccc(NC(=O)Cn2c(=O)n(-c3ccc(C)cc3)c(=O)c3ccccc32)c1 | inactive: -22.2% |
| Cc1nn(C)c2c1c(C(F)(F)F)cc(=O)n2CC(=O)Nc1ccc(F)cc1F | inactive: -29.7% |
| Cc1nnc(N2CCC(C(=O)NC3CCC(C)CC3)CC2)c2nn(-c3ccc(Cl)cc3)c(C)c12 (stereo not drawn) | inactive: -12.1% |
| Cc1ccccc1NC(=O)CSc1nccn1C | inactive: -21.6% |
| Cc1cccc(N(C)C(=O)Cn2cnc3nc4c(cc3c2=O)CCCC4)c1 | inactive: -26.7% |
| Cc1cc(Cl)ccc1NC(=O)C1CCCN(c2nnc(C)c3c(C)n(-c4ccccc4)nc23)C1 (stereo not drawn) | inactive: -7.08% |
| COc1cccc(N2CC(NC(=O)c3cccs3)CC2=O)c1 (stereo not drawn) | inactive: -21.7% |
| O=C(O)C(=O)Nc1cccc(-c2nn[nH]n2)c1 | inactive: -4.11% |
| Cc1cc(C)c(NC(=O)C(C)n2nc(C)c3sc4ccccc4c3c2=O)c(C)c1 (stereo not drawn) | inactive: -15% |

| SMILES | activity change, negative = inhibition |
| --- | --- |
| CC(CCc1ccccc1)NC(=O)CSc1n[nH]c(-c2ccccc2Cl)n1 (stereo not drawn) | inactive: -12.8% |
| COc1ccc(OC(=O)c2cn(-c3cccc(OC)c3)c(=O)c3ccccc23)cc1 | inactive: -19.8% |
| Cc1ccc(OC(C)C(=O)N2CCN(CCc3ccccn3)CC2)cc1C (stereo not drawn) | inactive: -11.5% |
| O=S(=O)(NCC(c1ccco1)S(=O)(=O)c1cccs1)c1ccccc1 (stereo not drawn) | inactive: -9.92% |
| Cc1cccc(OCC(=O)Nc2ccc3nc(SCc4ccccc4)sc3c2)c1 | inactive: -4.93% |
| Cc1nc2ccccc2n1CCc1nc2c3ccccc3nc(SCc3ccccc3F)n2n1 | inactive: 0% |
| CCc1ccc(CNC(=O)c2ccc(Cn3c(=O)c4cccn4c4cccnc43)cc2)cc1 | inactive: 0.277% |
| CCCc1nnc(NC(=O)CSc2nnc3c4ccccc4n(CC)c3n2)s1 | inactive: -2.93% |
| CCc1cccc(C)c1NC(=O)c1cc(CN2CCCC2)on1 | inactive: 5.9% |
| CC(C)NC(=O)C1CCCN(S(=O)(=O)c2ccc3c(ccn3C)c2)C1 (stereo not drawn) | inactive: 0.758% |
| COCCn1c(C)cc(O)c(C(c2cccc(F)c2)N2CCN(c3ccccc3)CC2)c1=O (stereo not drawn) | inactive: -13.2% |
| CCOc1ccc(C(=O)N2CC(=O)Nc3ccc(F)cc3C2c2ccc(F)cc2)cc1 (stereo not drawn) | inactive: -17.4% |
| COc1cc(C(=O)N2CCCCCCC2)cc(OC)c1OC | inactive: 6.58% |
| COc1ccc(-c2oc3ncn4nc(COc5ccc(Cl)cc5)nc4c3c2-c2ccc(OC)cc2)cc1 | inactive: -4.09% |
| CCc1nnc2c(Nc3cc(OC)c(Cl)cc3OC)nc3ccccc3n12 | inactive: -7.37% |
| O=C(Nc1ccc2oc(-c3cccc4c(Br)cccc34)nc2c1)c1cccc(Cl)c1 | inactive: -8.96% |
| CC(C)(C)C1CCc2c(sc(NC(=O)c3cc(-c4ccc(F)cc4)on3)c2C#N)C1 (stereo not drawn) | inactive: 15.4% |
| Cc1cc(C)cc(-n2ccn3cnnc3c2=O)c1 | inactive: -6.33% |
| CCC(C(=O)NCCc1ccc(OC)c(OC)c1)n1nc(C)c2sc3ccccc3c2c1=O (stereo not drawn) | inactive: -29.9% |
| CCCN(c1ccccc1F)S(=O)(=O)c1cc(-c2cc(C)no2)ccc1C | inactive: -28.8% |
| Cn1cc(C=CC(=O)c2cccc(F)c2)cc1C=CC(=O)NO | inactive: 33.1% |
| CSc1cccc(Nc2cc(C(=O)NC3CCCCC3)c3ccccc3n2)c1 | inactive: -30% |
| COc1cc2c(cc1OC)[C@@H]1Cc3ccc(OC)c(OC)c3CN1CC2 | inactive: -5.03% |
| CCc1ccc2occ(CC(=O)Nc3c(C(=O)c4ccc(F)cc4)oc4ccccc34)c2c1 | inactive: -18% |
| CCCCCCSc1nc(N)c2c3c(sc2n1)CCCC3C (stereo not drawn) | inactive: 38.8% |

| SMILES | activity change, negative = inhibition |
| --- | --- |
| Cn1nc(-c2ccccc2)c(-c2ccccc2)c(C(=O)Nc2ccccc2C(N)=O)c1=O | inactive: -18.4% |
| CN(C)c1ccc(-c2nc3ccc(Cl)cn3c2Nc2ccc3c(c2)OCCO3)cc1 | inactive: 34.1% |
| CCCN(CCC)c1cc(C)nc2nc(-c3ccc(C(C)(C)C)cc3)nn12 | inactive: -14.8% |
| Cc1cc(C)cc(N2C(=O)CSC23C(=O)N(CC(N)=O)c2ccccc23)c1 (stereo not drawn) | inactive: 8.64% |
| Cc1ccc(C)c(N2CCN(C3(c4ccccc4)C(=O)c4ccccc4C3=O)CC2)c1 | inactive: -25.9% |
| CCOCCCNC(=O)Cn1ncc2c([nH]c3ccc(C)cc32)c1=O | inactive: 3.1% |
| COCCN(Cc1ccc(C)c(Br)c1)S(=O)(=O)c1ccc2[nH]c(=O)ccc2c1 | inactive: -28.3% |
| CCOC(=O)c1ccc(NC(=O)c2cc(=O)c3ccc(C)c(C)c3o2)cc1 | inactive: -11.4% |
| COCCn1c(C)cc(O)c(C(c2ccccc2)N2CCCCC2)c1=O (stereo not drawn) | inactive: -11.4% |
| Cc1ccc(-n2ncc3c(Nc4ccc(Oc5ccccc5)cc4)ncnc32)cc1 | inactive: -6.35% |
| Cc1c(C(=O)Nc2cccc(C(F)(F)F)c2)sc2nc3n(c(=O)c12)CCC3 | inactive: -16.9% |
| Cc1cccc(Cn2cc3c(=O)n(CC(=O)Nc4cccc(C)c4C)nc-3c3cc(F)ccc32)c1 | inactive: -7.59% |
| CC(C)Cc1nn2c(=O)cc(COC(=O)c3cccc(NC(=O)c4ccccc4)c3)nc2s1 | inactive: -9.66% |
| COc1ccc(NC(=O)c2cc(C3CC3)nc3c2c(C)nn3-c2ccccc2)c(OC)c1 | inactive: -11.9% |
| CCCN(CCC)CCNC(=O)c1cc2c(=O)oc3ccc(C)cc3c2s1 | inactive: -23.4% |
| Cc1cccc(N2CCN(C(=O)c3cc4ccc5cccnc5c4[nH]3)CC2)c1C | inactive: -19.6% |
| CCOCCCNC(=O)Cn1ncc2c([nH]c3ccccc32)c1=O | inactive: 2.66% |
| Clc1ccccc1CNCCCSc1nnnn1-c1ccccc1 | inactive: -11.2% |
| CCOc1ccc(/C=C/c2nc(C#N)c(NCc3ccc(OC)cc3)o2)cc1 | inactive: -15.1% |
| COC(=O)c1ccc(NC(=O)C(=O)NCCc2csc3nc(-c4ccccc4F)nn23)cc1 | inactive: 17.6% |
| CCN(CC)S(=O)(=O)c1ccc2c(c1)N(CC(=O)Nc1cccc(C)c1C)C(=O)C1CCCN21 (stereo not drawn) | inactive: -4.91% |
| O=C(CCCN1CCC(O)(c2ccc(Cl)cc2)CC1)c1ccc(F)cc1 | inactive |
| COc1cccc(-c2noc(-c3cc4ccccc4oc3=O)n2)c1OC | inactive: 30.2% |
| COc1cc(OC)c(NC(=O)C(CC(C)C)N2Cc3ccccc3C2=O)cc1Cl (stereo not drawn) | inactive: -30.4% |
| CCOc1ccccc1NC(=O)CSc1cn(CC(=O)N2CCCCCC2)c2ccccc12 | inactive: -4.08% |

| SMILES | activity change, negative = inhibition |
| --- | --- |
| COc1ccc(C)cc1NC(=O)CSc1ncc2c(n1)-c1ccc(Cl)cc1N(Cc1ccccc1)S2(=O)=O | inactive: -24.3% |
| Cc1ccc(NC(=O)CCN2C(=O)c3ccccc3Sc3ncccc32)cc1 | inactive: -11.7% |
| CC1=C(C(=O)Nc2ccccc2)C(c2ccc(F)cc2)n2nc(SCc3cc(C)ccc3C)nc2N1 (stereo not drawn) | inactive: -10.5% |
| COC(=O)c1ccc2c(c1)N(CC(=O)Nc1ccc(C)c(C)c1)C(=O)c1ccccc1S2 | inactive: -18.8% |
| Cc1cc2oc(C(=O)Nc3sc4c(c3C(=O)NCC3CCCO3)CCCC4)cc(=O)c2cc1C (stereo not drawn) | inactive: -18.6% |
| Cn1c(=O)c2c(-c3ccc(Cl)cc3)ccnc2n(C)c1=O | inactive: 5.61% |
| COc1ccc(OC)c(CCNc2nc3cc(OC)c(OC)cc3c3nc(-c4cccnc4)nn23)c1 | inactive: -0.624% |
| CCOc1ccccc1CNC(=O)CN1C(=O)c2cccnc2Oc2ccc(Cl)cc21 | inactive: 0.652% |
| COc1ccc(S(=O)(=O)N2CCCCC2)cc1C(=O)NC1CCS(=O)(=O)C1 (stereo not drawn) | inactive: -15.4% |
| CCS(=O)(=O)N1CCC2(CC1)OC(=O)C(C)=C2C(=O)NCc1ccc(OC)c(OC)c1 | inactive: -12.6% |
| COc1ccc(N2CCN(C(=O)c3cn(C)c4ccc(S(=O)(=O)N5CCOCC5)cc4c3=O)CC2)cc1 | inactive: -18.7% [at 11.5 µM] |
| CCC1Oc2ccccc2N(CC(=O)NCc2ccccc2)C1=O (stereo not drawn) | inactive: 6.48% |
| Cn1c(=O)c(=O)n(C)c2cc(N3CCCC3)c(NC(=O)c3ccccc3Cl)cc21 | inactive: 0.31% |
| CCn1c(=O)c2sccc2n2c(CCCC(=O)Nc3ccc(Oc4ccccc4)cc3)nnc12 | inactive: -16.8% |
| CCOc1ccccc1CNC(=O)CN1C(=O)c2cccnc2Oc2ccc(C)cc21 | inactive: -19% |
| NCC(=O)CCC(=O)O | inactive: 13.1% |
| N[C@H](CSC(c1ccccc1)(c1ccccc1)c1ccccc1)C(=O)O | inactive: -11.2% |
| COc1ccc(OC)c(NC(=O)N2CCC3(CC2)Oc2ccccc2C(=O)N3Cc2ccccc2F)c1 | inactive: -28% |
| COc1ccc(-c2noc(CC(=O)N(C)c3cc(Cl)c(OC)cc3OC)n2)cc1 | inactive: -26.5% |
| CCCCN(C)C(=O)c1ccc2c(c1)NC(=O)C(CC(C)C)N2 (stereo not drawn) | inactive: -21% |
| CCN1C(=O)C2(c3ccccc31)c1c(oc3ccccc3c1=O)C(=O)N2CCOC (stereo not drawn) | inactive: -18.9% |
| Cc1ccc(OCCSc2nc3ccccc3n2CCC(=O)O)cc1 | inactive: 1.68% |
| CN(Cc1ccccc1)c1nc2c(S(=O)(=O)c3ccccc3)nnn2c2ccsc12 | inactive: -6.89% |
